Experimental data taken from ChEMBL document CHEMBL4888484, “Replenishing the malaria drug discovery pipeline: Screening and hit evaluation of the MMV Hit Generation Library 1 (HGL1) against asexual blood stage Plasmodium falciparum ,using a nano luciferase reporter read-out” (2022).
Screen size: about 150,000 compounds; about 540 (0.36%) showed an effect of 50% or more. The list shows a part of the results.

Tested on: Plasmodium falciparum
Assay: Primary screen in NF54 nanoGlo assay, in single point, at 2uM, 72h; a lower Z score goes with more inhibition
Type: functional, Erythrocyte
Conditions: timepoint 72 hour

SMILES | % Inhibition [%] | Z score
O=C(Nc1ccc(-c2ccn[nH]2)cc1)N[C@H]1CC[C@H](O)CC1 | -10 | 1.59
COCc1ccc(C(=O)N[C@@H](C)c2nc(C)no2)s1 | -5 | 1.12
C[C@@H](Cc1ccco1)NS(=O)(=O)N(C)C | -4 | 0.52
O=C(CN1CCC(F)(F)[C@@H](CO)C1)NCc1ccc(Cl)s1 | -6 | 0.75
Cn1cc(S(=O)(=O)N(c2ccccc2)C2CCCC2)cn1 | 8 | -1.58
CCN(CC)C(N)=NCc1cc(Cl)c2c(c1)OCCO2 | -10 | 1.01
O=C1N[C@H]2C[C@@H](C(=O)NC[C@H]3O[C@H](CCOc4cc(C5CCCC5)ccc41)CC[C@@H]3O)N(Cc1ccc(Cl)c(F)c1)C2 | 33 | -3.78
COc1ccc(NC(=O)Cc2csc(-n3nc(C)c(Cl)c3C)n2)cc1 | -20 | 3.7
CCOC(=O)NCCC(=O)N[C@@H](C)c1ccncc1 | -9 | 1.44
CC(=O)N1CCCN(c2ccc3nnc(C(F)(F)F)n3n2)CC1 | -3 | 0.24
CC[C@@H](O)CNC(C)c1ccc(Cl)s1 (some centres undefined) | 1 | -0.1
Cc1c(C)c(C(=O)N[C@@H](C)c2ccccc2)n(Cc2ccccc2F)c1C | -11 | 1.43
CNCCN1C(=O)CC[C@@H]2CN(c3nc4ccccc4s3)CC[C@@H]21 | 1 | -0.17
O=S(=O)(c1ccccc1)N1CCN(C2CCCCCC2)CC1 | -3 | 0.37
CCOc1ccc2ccccc2c1CNc1cnn(CC(F)F)c1 | -14 | 2.12
OCC(CNc1ccncc1Br)C1CCOC1 (centres undefined) | -19 | 1.76
O=C(COc1ccccc1)Nc1ccc(-c2cn3ccccc3n2)cc1 | -6 | 0.74
O=C(NCCCc1cnoc1)OCC1CCCCC1 | -1 | 0.25
CCCS(=O)(=O)N[C@H]1CCN(C(=O)Cc2c(C)nn(-c3ccc(Cl)c(Cl)c3)c2C)C1 | -3 | 0.33
COc1ccccc1-n1nc(Cc2ccccc2)n(CC(=O)NCC2CC2)c1=O | 1 | -0.08
COc1cc(-c2cc(C(=O)N3CC[C@H](n4nccn4)C3)[nH]n2)cc(OC)c1OC | -10 | 1.35

SMILES | % Inhibition [%] | Z score
CO[C@H]1CS(=O)(=O)C[C@@H]1Nc1nc(C)cc(C)c1C#N | -10 | 1.84
CCOc1ccc(C(=O)c2ccccc2C(=O)N2CC[C@H](N)C2)cc1OCC | -4 | 0.48
O=C(NCCOC1CCCCC1)c1ccncc1Br | -2 | 0.3
CCc1nccn1CCCNc1ncncc1C(=O)O | -13 | 1.31
NC(=O)CN1CCCN(C(=O)c2cc(-c3ccccc3)cs2)CC1 | 2 | -0.21
O=C(CCn1nnc2ccccc21)N1[C@H]2CCNC[C@@H]1CC2 | -5 | 0.66
O=C(Nc1cnn(-c2ncc(N3CCCCC3)cn2)c1)c1ccncc1 | 2 | -0.32
CC(=O)NC(C)(C)C[C@H](C)NCc1nc(C)cc(C)n1 | -13 | 2.15
Cc1cccc(C)c1OCC(=O)Nc1ccc(-c2nc3cc4ccccc4cc3[nH]2)cc1 | 49 | -5.57
N#CC1(CS(=O)(=O)N[C@H](c2cc(F)ccc2F)C2CC2)CC1 | 0 | 0.05
CCn1cnnc1CNS(=O)(=O)c1ccc(C2CCCCC2)cc1 | -10 | 1.59
CC[C@@H](Cc1ccccc1)NC(=O)CN(C)S(=O)(=O)c1ccc2c(c1)c(=O)n(C)c(=O)n2C | -11 | 1.35
Cn1c(Cl)cnc1CN1CCC(C(=O)NCc2ccccc2)CC1 | -4 | 0.68
Cc1nc(C)c(Br)c(NC[C@@H](O)CO)n1 | -7 | 0.82
Cc1cnccc1N1CCC[C@@]2(CCC(=O)N(Cc3ccccn3)C2)C1 | -5 | 0.93
COc1ccc2c(c1)CCCN(c1ccncc1C#N)C2 | -8 | 1.27
O=S(=O)(Cc1cc(Cl)ccc1F)Nc1noc(C2CC2)n1 | -4 | 0.76
Cc1ccccc1N1CCN(c2ncc3c(=O)n(Cc4ccccc4F)c(=O)[nH]c3n2)CC1 | 18 | -2
O=S1(=O)NC(CN2CCOc3cc(F)ccc32)=Nc2ccccc21 | -2 | 0.34
O=C(NCCc1nc(-c2cccs2)c[nH]1)c1ccsc1 | -9 | 1.06
Cc1nccc(C(=O)NCc2c(C)cc(C)[nH]c2=O)n1 | -3 | 0.49
